The values below come from patent publication US12043670B2, “Anti-BCMA antibody-drug conjugates and methods of use” (Eisai R&D Management Co., Ltd., priority 2020, dated 2024).

Residue numbers refer to the chain shown, from its start.

The labels stand for the following.
B1: AB200-(2Vk30)_R2-VH-v40 (antibody)
heavy: QVQLVQSGAEVKKPGSSVKVSCKASGGTFTNYWIHWVRQAPGQGLEWMGATYRIHSTTYYAQKFKSRVTITADKSTSTAYMELSSLRSEDTAVYYCARGAIYHGFDVIDNWGQGTLVTVSSASTKGPSVFPLAPSSKSTSGGTAALGCLVKDYFPEPVTVSWNSGALTSGVHTFPAVLQSSGLYSLSSVVTVPSSSLGTQTYICNVNHKPSNTKVDKKVEPKSC
light: DIQMTQSPSSLSASVGDRVTITCRASQSISSYLNWYQQKPGKAPKLLIYATSNLQIGVPSRFSGSGSGTDFTLTISSLQPEDFATYYCQQYRRIPWTFGQGTKLEIKRTVAAPSVFIFPPSDEQLKSGTASVVCLLNNFYPREAKVQWKVDNALQSGNSQESVTEQDSKDSTYSLSSTLTLSKADYEKHKVYACEVTHQGLSSPVTKSFNRGEC
B2: AB200-(2Vk30)_R2-VH-v16 (antibody)
heavy: B1 heavy with T28S, T30S, A50G, I54S, T57D, Y59N, A61N, Y102F, F105Y
light: B1 light
B3: AB200-(2Vk30)_R2-VH-v67 (antibody)
heavy: B1 heavy with T30S, A61N, Q62E, I101V, F105Y
light: B1 light
B4: AB200-(2Vk30)_R2-VH-v31 (antibody)
heavy: B1 heavy with T30S, I54S, H55Q, T57D, Y59N, A61N, I101V, F105Y
light: B1 light
B5: AB200-(2Vk30)_R2-VH-v4 (antibody)
heavy: B1 heavy with I54S, T57D, Y59N, F105Y, D109E
light: B1 light
B6: AB200-(2Vk30)_R2-VH-v23 (antibody)
heavy: B1 heavy with T30S, A50G, I54S, T57D, A61N, F64Y, Y102F, F105Y
light: B1 light
B7: AB200-(2Vk30)_R2-VH-v59 (antibody)
heavy: B1 heavy with T30S, A50G, T57D, F105Y, D109E
light: B1 light
B8: AB200-(2Vk30)_R2-VH-v51 (antibody)
heavy: B1 heavy with T28S, T30S, A50G, H55Q, T57D, A61N, F105Y, D109E
light: B1 light
B9: AB200-(2Vk30)_R2-VH-v43 (antibody)
heavy: B1 heavy with A50G, T57D
light: B1 light
B10: AB200-(2Vk30)_R2-VH-v13 (antibody)
heavy: B1 heavy with T28S, T30S, A50G, I54S, T57D, F105Y, D109E
light: B1 light
B11: AB200-(2Vk30)_R2-VH-v30 (antibody)
heavy: B1 heavy with T30S, I54S, T57D, Y59N, F105Y, D109E
light: B1 light
B12: AB200-(2Vk30)_R2-VH-v37 (antibody)
heavy: B1 heavy with T30S, I54S, H55Q, T57D, A61N, F64Y, I101V, F105Y
light: B1 light
B13: AB200-(2Vk30)_R2-VH-v71 (antibody)
heavy: B1 heavy with T30S, T57D, Y59N, A61N, Q62E, Y102F, F105Y
light: B1 light
B14: AB200-(2Vk30)_R2-VH-v45 (antibody)
heavy: B1 heavy with F29Y, T30S, Y59N, A61N, Y102F, F105Y
light: B1 light
B15: AB200-(2Vk30)_R2-VH-v19 (antibody)
heavy: B1 heavy with T30S, A50G, I54S, A61N
light: B1 light
B16: AB200-(2Vk30)_R2-VH-v74 (antibody)
heavy: B1 heavy with T30S, T57D, Q62E
light: B1 light
B17: AB200-(2Vk30)_R2-VH-v10 (antibody)
heavy: B1 heavy with F29Y, T30S, I54S, T57D, Y59N, A61N, F64Y, F105Y, D109E
light: B1 light
B18: AB200-(2Vk30)_R2-VH-v65 (antibody)
heavy: B1 heavy with T30S, H55Q, A61N
light: B1 light
B19: AB200-(2Vk30)_R2-VH-v39 (antibody)
heavy: B1 heavy with T57D, Q62E, Y102F, F105Y
light: B1 light
B20: AB200-(2Vk31)_R2-VH-v66 (antibody)
heavy: B1 heavy with T30S, A61N, F64Y, Y102F, F105Y
light: B1 light with Y91F, I94L
B21: AB200-(2Vk31)_R2-VH-v73 (antibody)
heavy: B1 heavy with T30S, T57D, F64Y, I101V, F105Y
light: B1 light with Y91F, I94L
B22: AB200-(2Vk31)_R2-CDR2-hs-v1 (antibody)
heavy: QVQLVQSGAEVKKPGSSVKVSCKASGGTFTNYWIHWVRQAPGQGLEWMGGIIPIFGTANYAQKFQGRVTITADKSTSTAYMELSSLRSEDTAVYYCARGAIFHGYDVIDNWGQGTLVTVSSASTKGPSVFPLAPSSKSTSGGTAALGCLVKDYFPEPVTVSWNSGALTSGVHTFPAVLQSSGLYSLSSVVTVPSSSLGTQTYICNVNHKPSNTKVDKKVEPKSC
light: B1 light with Y91F, I94L
B23: AB200-(2Vk31)_R2-VH-v2 (antibody)
heavy: B1 heavy with I54S, Y59N, A61N, I101V, F105Y
light: B1 light with Y91F, I94L
B24: AB200-(2Vk31)_R2-VH-v17 (antibody)
heavy: B1 heavy with T28S, T30S, I54S, H55Q, T57D, Y102F, F105Y
light: B1 light with Y91F, I94L
B25: AB200-(2Vk31)_R2-CDR2-hs-v3 (antibody)
heavy: B22 heavy with I101V, F102Y
light: B1 light with Y91F, I94L
B26: AB200-(2Vk31)_R2-CDR1-hs-v3 (antibody)
heavy: QVQLVQSGAEVKKPGSSVKVSCKASGGTFSSYAISWVRQAPGQGLEWMGATYRSQSDTYYNQKYKSRVTITADKSTSTAYMELSSLRSEDTAVYYCARGAVYHGYDVIDNWGQGTLVTVSSASTKGPSVFPLAPSSKSTSGGTAALGCLVKDYFPEPVTVSWNSGALTSGVHTFPAVLQSSGLYSLSSVVTVPSSSLGTQTYICNVNHKPSNTKVDKKVEPKSC
light: B1 light with Y91F, I94L
B27: AB200-(2Vk31)_R2-VH-v12 (antibody)
heavy: B1 heavy with F29Y, T30S, I54S, A61N, F64Y
light: B1 light with Y91F, I94L
B28: AB200-(2Vk31)_R2-VH-v20 (antibody)
heavy: B1 heavy with T30S, A50G, I54S, T57D, Y59N, A61N, F105Y, D109E
light: B1 light with Y91F, I94L
B29: AB200-(2Vk31)_R2-VH-v18 (antibody)
heavy: B1 heavy with T28S, T30S, I54S, T57D, Q62E, I101V, F105Y
light: B1 light with Y91F, I94L
B30: AB200-R1H32-R2Vk11 (antibody)
heavy: B1 heavy with T30S, I34M, I54S, T57D, A61N, F105Y
light: B1 light with T51A, N53S, I56S, Y91F, I94L
B31: AB200-R1H32-R2Vk13 (antibody)
heavy: B1 heavy with T30S, I34M, I54S, T57D, A61N, F105Y
light: B1 light with T51A, N53S, I56S, Y91F, R93K
B32: AB200-R1H32-R2Vk14 (antibody)
heavy: B1 heavy with T30S, I34M, I54S, T57D, A61N, F105Y
light: B1 light with L33I, T51A, N53S, I56S, I94L, T97S
B33: AB200-R1H32-R2Vk16 (antibody)
heavy: B1 heavy with T30S, I34M, I54S, T57D, A61N, F105Y
light: B1 light with L33I, T51A, N53S, I56S, Y91F, I94L
B34: AB200-R1H32-R2Vk12 (antibody)
heavy: B1 heavy with T30S, I34M, I54S, T57D, A61N, F105Y
light: B1 light with T51A, N53S, I56S, R93K, T97S
B35: AB200-R1H32-R2Vk15 (antibody)
heavy: B1 heavy with T30S, I34M, I54S, T57D, A61N, F105Y
light: B1 light with L33I, T51A, N53S, I56S

The first data set is described as follows: ThermoFluor thermostability (Tm). The class given is physicochemical. The note with it: Fab fragment; heavy chain clone paired with light chain AB200-(2Vk30).
Turning to B1, the Tm is 79.807 °C.

Take B2: the Tm stood at 78.165 °C.

On to B3, for which the Tm was 82.324 °C.

As to B4, the Tm was determined as 79.955 °C.

Turning to B5, the Tm was found to be 77.268 °C.

On to B6, for which the Tm is 79.432 °C.

In the case of B7, the Tm worked out at 77.316 °C.

For the molecule B8, the Tm was 79.046 °C.

On to B9, for which the Tm amounted to 77.757 °C.

Turning to B10, the Tm was determined as 78.570 °C.

In the case of B11, the Tm amounted to 77.090 °C.

As to B12, the Tm was 81.855 °C.

For the molecule B13, the Tm was 77.820 °C.

Turning to B14, the Tm was found to be 78.131 °C.

As to B15, the Tm is 82.102 °C.

Consider B16, for which the Tm was found to be 78.953 °C.

B17: the Tm came to 77.313 °C.

For the molecule B18, the Tm amounted to 81.557 °C.

Regarding B19, the Tm came out at 78.621 °C.

Staying with this data set, now noted: Fab fragment; heavy chain clone paired with light chain AB200-(2Vk31).
As for B20, the Tm was 82.876 °C.

Consider B21, for which the Tm was determined as 81.181 °C.

B22: the Tm was found to be 85.076 °C.

Regarding B23, the Tm stood at 84.104 °C.

As for B24, the Tm amounted to 81.682 °C.

Take B25: the Tm is 85.503 °C.

As for B26, the Tm was 78.565 °C.

For B27, the Tm came to 83.892 °C.

For B28, the Tm stood at 81.245 °C.

As for B29, the Tm turned out to be 83.629 °C.

Still in this data set, the particulars now being: Fab fragment; light chain clone paired with heavy chain AB200_R1_VH32.
For the molecule B30, the Tm came out at 80.494 °C.

For the molecule B31, the Tm was 80.777 °C.

For B32, the Tm amounted to 77.375 °C.

Consider B33, for which the Tm came out at 80.595 °C.

B34: the Tm turned out to be 77.686 °C.

Consider B35, for which the Tm amounted to 77.827 °C.
